{
  "source": "PubChem BioAssay AID652104",
  "about": "(National Center for Advancing Translational Sciences (NCATS), 2013)",
  "note": "Several values for one entry are separate records, joined by “and”; a condition that tells them apart may be missing. Identical values can stand only once. The campaign covered roughly 410,000 compounds. About 7,200 (1.8%) were called active. This list was built around the results that the source calls inconclusive (neither active nor inactive); the mix of calls is not that of the screen. Calls come from the whole dose curve; as a rule, active = well fitted activation curve with a large enough effect; inconclusive = small, poorly fitted or top-dose-only effect, or another doubt; inactive = no such curve, though single readings can be large or run the other way. Where the call is inconclusive, the potency comes from a doubtful curve fit. Potency is the fitted concentration of half-maximal effect; tags give direction and shape of the fitted curve.",
  "data": [
    {"assay": "qHTS of TDP-43 Inhibitors; note: nearly all actives have a fitted effect of over 50% in size; for growth rescue (activation): % of control where 0% means no effect", "settings": "TDP-43 expressing yeast growth rescue, BacTiter-Glo, 24 h; growth rescue (activation): at 46.1 µM (top of the series) unless noted", "in_short": "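In this qHTS, compounds that restore growth of yeast expressing TDP-43 appear as activators. Cells (OD600=0.02, galactose medium, raffinose-pregrown) are incubated with compound 24 hr at 30 deg C and growth is quantified by BacTiter-Glo.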", "values": [
      {"smiles": "COC(=O)c1sccc1S(=O)(=O)N1CCN(c2cccc(C)c2)C(C)C1", "note": "(stereo not given)", "Potency": "active: 14.1 µM"},
      {"smiles": "CC(=O)c1cc(CN2CCN(C3CCN(C(C)C)CC3)C(CCO)C2)cs1", "note": "(stereo not given)", "growth rescue (activation)": "inactive: 13.3%"},
      {"smiles": "Cc1nn(C(C)c2n[nH]c(=S)n2-c2cccc(Cl)c2)c(C)c1[N+](=O)[O-]", "note": "(stereo not given)", "Potency": "inconclusive: 2.51 µM [activator, full curve]"},
      {"smiles": "Cc1cccc(N(C)S(=O)(=O)c2nnc(NC(=O)C(C)Oc3ccccc3)s2)c1", "note": "(stereo not given)", "growth rescue (activation)": "inactive: -0.203%"},
      {"smiles": "O=C(Nc1ccccc1)OC1CCC2CC1CCC2OC(=O)Nc1ccccc1", "note": "(stereo not given)", "Potency": "inconclusive: 20 µM [activator, partial curve]"},
      {"smiles": "COc1ccccc1-c1nnc(-c2ccc(F)cc2)o1", "Potency": "inconclusive: 2.51 µM [activator, partial curve]"},
      {"smiles": "Cc1ccc(C)c(OCc2nc3ccccc3n2C)c1", "growth rescue (activation)": "inactive: 22.3%"},
      {"smiles": "C=CCNC1=C(Cl)C(=O)c2ccccc2C1=O", "Potency": "inconclusive: 22.4 µM [activator, single point]"},
      {"smiles": "c1ccc(N2CCOCC2)c(Nc2nc3ccccc3n3cnnc23)c1", "Potency": "inconclusive: 17.8 µM [activator, single point]"},
      {"smiles": "O=C(NCc1ccc(F)cc1)c1cc(C2CCCCN2S(=O)(=O)c2ccccc2)on1", "note": "(stereo not given)", "Potency": "inconclusive: 35.5 µM [activator, partial curve]"},
      {"smiles": "O=C(NC1CCSc2ccccc21)c1cccc(OC(F)F)c1", "note": "(stereo not given)", "Potency": "inconclusive: 25.1 µM [activator, single point]"},
      {"smiles": "Cc1nc2nc(NCc3ccccc3Cl)[nH]n2c(=O)c1Cc1ccccc1", "Potency": "inconclusive: 5.62 µM [activator, full curve, poor fit]"},
      {"smiles": "CC(=O)Nc1ccc(S(=O)(=O)/N=C2\\SCCN2S(=O)(=O)c2ccc(NC(C)=O)cc2)cc1", "Potency": "inconclusive: 2.51 µM [activator, partial curve]"},
      {"smiles": "COc1ccc([N+](=O)[O-])cc1NC(=O)C(C)OC(=O)CSC(C)C(=O)Nc1cc(C)on1", "note": "(stereo not given)", "growth rescue (activation)": "inactive: -12.5%"},
      {"smiles": "CCCCOc1ccc(C(=O)NCc2ccco2)cc1", "Potency": "inconclusive: 22.4 µM [activator, partial curve]"},
      {"smiles": "Cc1[nH]nc(N=CC2=C(O)CC(c3ccco3)CC2=O)c1-c1ccc(Cl)cc1", "note": "(stereo not given)", "growth rescue (activation)": "inactive: -3.64%"},
      {"smiles": "COc1ccc2oc(-c3cccc(NC(=O)c4cc([N+](=O)[O-])ccc4N4CCOCC4)c3)nc2c1", "Potency": "inconclusive: 17.8 µM [activator, partial curve]"},
      {"smiles": "N/C(=N\\OC(=O)c1ccc2ccccc2c1)c1ccncc1", "Potency": "active: 12.6 µM"},
      {"smiles": "CCCCn1c(SCc2nc3ccccc3s2)nc2ccccc2c1=O", "Potency": "inconclusive: 1.12 µM [activator, full curve, poor fit]"},
      {"smiles": "Cc1ccc(Nc2nc(Cl)nc(N(C)C#N)n2)cc1", "Potency": "inconclusive: 17.8 µM [activator, single point]"},
      {"smiles": "COc1cccc(NC(=O)CSc2ccc3nnc(-c4ccncc4)n3n2)c1", "Potency": "inconclusive: 0.316 µM [activator, full curve, poor fit]"},
      {"smiles": "CCc1ccc(NC(=O)CSc2nnc(CC)c(CC)n2)cc1", "Potency": "inconclusive: 31.6 µM [activator, single point] and inconclusive: 28.2 µM [activator, partial curve, poor fit]"},
      {"smiles": "CCCCNC(=O)C(NC(=O)c1cccnc1)C(=O)c1ccccc1", "note": "(stereo not given)", "Potency": "inconclusive: 0.794 µM [activator, full curve]"},
      {"smiles": "O=[N+]([O-])c1ccc(Nc2ccccc2)nc1", "Potency": "inconclusive: 12.6 µM [activator, partial curve]"},
      {"smiles": "CN(CC(=O)Nc1ccc(F)cc1F)S(=O)(=O)c1cccc2nsnc12", "Potency": "inconclusive: 14.1 µM [activator, partial curve]"},
      {"smiles": "O=S(=O)(c1ccc(-c2ccno2)s1)N1CCCCC1", "Potency": "inconclusive: 14.1 µM [activator, single point]"},
      {"smiles": "COc1ccccc1Cc1c(-c2ccc(F)cc2)nc2ccc(Br)cn12", "Potency": "inconclusive: 31.6 µM [activator, single point]"},
      {"smiles": "O=C(CNC(=O)C1COc2ccccc2O1)Nc1cc(Cl)ccc1Cl", "note": "(stereo not given)", "Potency": "inconclusive: 11.2 µM [activator, partial curve]"},
      {"smiles": "COc1cc(C(=O)N/C(=C\\c2cn(C)c3ccccc23)C(=O)NCCCN2CCOCC2)cc(OC)c1OC", "Potency": "inconclusive: 35.5 µM [activator, single point]"},
      {"smiles": "CCOC(=O)C1CCN(C(=O)c2cnn(-c3ccc(F)cc3)c2-n2cccc2)CC1", "Potency": "inconclusive: 35.5 µM [activator, single point]"},
      {"smiles": "CC1=CC2=NC(=O)/C(=C\\c3cccn3CCOc3ccccc3)C(=N)N2O1", "Potency": "inconclusive: 1.78 µM [activator, partial curve]"},
      {"smiles": "O=C(N/N=C/c1cc(Cl)c(O)c(Cl)c1)c1cc2c(ccc3ccccc32)o1", "Potency": "inconclusive: 17.8 µM [activator, partial curve]"},
      {"smiles": "Cc1cc(=O)n(CC(=O)Nc2ccc(Cl)c(Cl)c2)c(-n2nc(C)cc2C)n1", "Potency": "active: 12.6 µM"},
      {"smiles": "ClCc1nc2ccccc2c2ccccc12", "Potency": "active: 14.1 µM"},
      {"smiles": "COc1ccc(CSc2ncnc3sccc23)cc1F", "Potency": "active: 12.6 µM"},
      {"smiles": "Cc1ccccc1OCCNC(=O)/C=C/c1ccc([N+](=O)[O-])cc1", "Potency": "inconclusive: 3.16 µM [activator, partial curve]"},
      {"smiles": "COc1ccc(NC(=O)CC2C(=O)N(c3ccccc3)C(=O)N2CCc2sccc2C)cc1", "note": "(stereo not given)", "growth rescue (activation)": "inactive: 7.39%"},
      {"smiles": "CCc1ccccc1NC(=O)c1sc2nc(C)cc(C)c2c1N", "Potency": "active: 17.8 µM"},
      {"smiles": "Cc1ccc(CN2CCC(CNC(=O)c3cnn(-c4ccc(C)cc4)c3C3CCN(C(=O)OC(C)(C)C)CC3)CC2)cc1", "growth rescue (activation)": "inactive: -10.7%"},
      {"smiles": "CCOC(=O)CN1C(=O)N(c2ccc(C)c(C)c2)S(=O)(=O)c2ccccc21", "growth rescue (activation)": "inactive: 15.7%"},
      {"smiles": "O=C(CCCCCn1c(=S)[nH]c2ccc(N3CCOCC3)cc2c1=O)NC1CCN(Cc2ccccc2)CC1", "Potency": "inconclusive: 0.562 µM [activator, full curve]"},
      {"smiles": "O=C(CSc1ccccc1)NN1C(=O)c2ccccc2C1=O", "Potency": "inconclusive: 11.2 µM [activator, partial curve, poor fit]"},
      {"smiles": "COc1ccc(Br)c(Cn2c(C)c(C(=O)NCc3cccs3)sc2=O)c1", "Potency": "inconclusive: 17.8 µM [activator, partial curve]"},
      {"smiles": "COc1cc(NC(=O)Cc2ccccc2)nc(OC)n1", "Potency": "inconclusive: 11.2 µM [activator, single point]"},
      {"smiles": "CCn1nnc(NC(=O)c2cccc(-c3cc4ccccc4oc3=O)c2)n1", "growth rescue (activation)": "inactive: -14.4%"},
      {"smiles": "CC(C)(C)c1cc2nc(NCCOc3ccccc3)ccn2n1", "Potency": "inconclusive: 12.6 µM [activator, partial curve]"},
      {"smiles": "C=CCS/C(N)=N\\N=C\\c1cc(Br)cc([N+](=O)[O-])c1O", "Potency": "inconclusive: 7.94 µM [activator, partial curve]"},
      {"smiles": "O=C(/C=C/c1ccco1)NC(=S)Nc1ccccc1N1CCCC1", "Potency": "active: 22.4 µM"},
      {"smiles": "COC(=O)N/N=C\\c1ccc(OC/C=C/c2ccccc2)cc1", "Potency": "inconclusive: 6.31 µM [activator, partial curve]"},
      {"smiles": "O=c1oc2ccccc2c2c1ccc1ccccc12", "Potency": "active: 35.5 µM"},
      {"smiles": "COc1cc2cc(C(c3nnnn3C(C)(C)C)N3CCC(C)CC3)c(=O)[nH]c2cc1OC", "note": "(stereo not given)", "growth rescue (activation)": "inactive: -0.144%"},
      {"smiles": "Cc1ccccc1CNC(=O)C1CCCCN1S(=O)(=O)c1ccc(F)cc1", "note": "(stereo not given)", "Potency": "inconclusive: 35.5 µM [activator, partial curve]"},
      {"smiles": "O=[N+]([O-])c1ccc(S(=O)(=O)N2CCn3cccc3C2c2ccc(Br)cc2)cc1", "note": "(stereo not given)", "Potency": "inconclusive: 11.2 µM [activator, partial curve]"},
      {"smiles": "Cc1ccc(OCC(=O)N(C)C2CCCCC2)c([N+](=O)[O-])n1", "Potency": "inconclusive: 35.5 µM [activator, single point]"},
      {"smiles": "Cc1cc(C)c(S(=O)(=O)Cc2ccccc2)c(Cl)n1", "Potency": "inconclusive: 10 µM [activator, partial curve]"},
      {"smiles": "COc1ccc(CN(C)C(=S)Nc2ccc(Cl)cc2)cc1", "growth rescue (activation)": "inactive: 11.6%"},
      {"smiles": "N/C(Cc1ccc([N+](=O)[O-])cc1)=N\\OC(=O)Cc1ccccc1", "Potency": "inconclusive: 12.6 µM [activator, single point]"},
      {"smiles": "COc1ccccc1C(=O)O/N=C(\\N)c1ccc(Cl)cc1", "Potency": "active: 14.1 µM"},
      {"smiles": "Brc1ccsc1/C=N/Nc1ccccc1", "Potency": "active: 10 µM"},
      {"smiles": "COC(=O)Cc1coc2cc(OC)ccc12", "Potency": "inconclusive: 2.51 µM [activator, partial curve]"},
      {"smiles": "COc1cc(/C=N/N2CCOCC2)ccc1OCc1ccccc1", "growth rescue (activation)": "inactive: -13.3% [at 9.22 µM]"},
      {"smiles": "COC(=O)c1ccccc1NC(=O)CSc1ccccc1", "Potency": "inconclusive: 12.6 µM [activator, single point]"},
      {"smiles": "Cc1ccccc1NC(=O)c1c(NC(=O)c2ccccc2F)sc2c1CCC(C)C2", "note": "(stereo not given)", "growth rescue (activation)": "inactive: 18.8%"},
      {"smiles": "COc1ccccc1NC(=O)c1ncn(-c2ccccc2)n1", "growth rescue (activation)": "inconclusive: 31.3% [activator]"},
      {"smiles": "Cc1c(C(=O)OC2CCC(C)CC2)[nH]c2c1C(=O)CC(c1ccc(F)cc1)C2", "note": "(stereo not given)", "Potency": "inconclusive: 6.31 µM [activator, partial curve, poor fit]"},
      {"smiles": "COc1ccc2c(c1)c1c(c(=O)n(-c3cc(Cl)ccc3C)c(=O)n1CC(=O)N1CCCC1)n2C", "growth rescue (activation)": "inactive: 11.1%"},
      {"smiles": "COc1ccc(-c2nnn3c2nc(NCCc2ccc(OC)c(OC)c2)c2ccccc23)cc1", "growth rescue (activation)": "inactive: 0.889%"},
      {"smiles": "COc1ccc(OC)c(Nc2nc3ccccc3nc2-n2nc(C)cc2C)c1", "Potency": "inconclusive: 3.55 µM [activator, partial curve]"},
      {"smiles": "N#C/C(N)=C(/C#N)N=Cc1cccc(Cl)c1", "Potency": "inconclusive: 14.1 µM [activator, single point]"},
      {"smiles": "Cc1ccc(S(=O)(=O)NC(=O)C2(C)CCN2C(=O)c2ccccc2CCc2ccccc2)cc1", "note": "(stereo not given)", "Potency": "inconclusive: 35.5 µM [activator, single point]"}
    ]}
  ]
}
